Experimental data published in the supplement of paper PMC9446081.
The whole screen tested about 39,000 compounds, of which about 220 (0.56%) showed activity. This is one part of the list.

System: Escherichia coli K-12 BW25113
Assay: relative growth (OD600 normalised to plate interquartile mean) (fraction); higher = less growth inhibition, active = 0.2 or less
Conditions: 50 µM; LB; incubation time: overnight (16-24 h)
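Note: static incubation at 37 °C against the wild-type strain, values averaged over two biological replicates.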

Compound	relative growth
Cc1ccc(S(=O)(=O)Nc2ccc3c(c2)C(=O)N([C@H](C)CO)C[C@H](C)[C@H](CN(C)C(=O)Nc2ccc(C(F)(F)F)cc2)OCCCC[C@@H](C)O3)cc1	inactive: 0.998
c1csc([C@@H]2CNCCN2)c1	inactive: 0.992
C[C@@H]1CN([C@@H](C)CO)C(=O)Cc2cc(NC(=O)Cn3cnnn3)ccc2O[C@@H]1CN(C)S(=O)(=O)c1cccs1	inactive: 0.975
COc1ccc(NC(=O)N(C)C[C@@H]2Oc3ccc(NS(=O)(=O)c4cn(C)cn4)cc3C(=O)N([C@@H](C)CO)C[C@@H]2C)cc1	inactive: 0.97
C[C@@H]1CN([C@@H](C)CO)C(=O)c2cc(NC(=O)CCN3CCOCC3)ccc2O[C@@H]1CN(C)S(C)(=O)=O	inactive: 0.992
COc1ccc2c3c(n(c2c1)C)[C@H](CO)N(C[C@]13CCN(CC1)S(=O)(=O)c1cn(cn1)C)C(=O)Nc1ccc(cc1)F	inactive: 1.01
Cc1ccc2cc(-c3c(C)ccc(C(=O)c4c(-c5ccccc5)n(C)n(-c5ccccc5)c4=O)c3N)ccc2n1	inactive: 1.03
C[C@H](CO)N1C[C@H](C)[C@H](CN(C)S(=O)(=O)c2cn(C)cn2)Oc2ccc(NC(=O)Cc3ccccc3)cc2CC1=O	inactive: 0.981
COc1cc(C)c(C(=O)Oc2cc(C)c(C(=O)O)c(O)c2C)c(OC)c1C	inactive: 1.06
Cc1noc(C)c1NC(=O)Nc1ccc2c(c1)C(=O)N([C@@H](C)CO)C[C@@H](C)[C@H](CN(C)C(=O)c1ccccc1)OCCCC[C@H](C)O2	inactive: 0.986
COc1ccc(CN(C)C[C@H]2OCCCC[C@@H](C)Oc3ccc(NS(=O)(=O)c4c(C)noc4C)cc3C(=O)N([C@@H](C)CO)C[C@@H]2C)cc1	inactive: 1.03
CC1=NC[C@H](O)[C@@H](C(=O)O)N1	inactive: 1
CCCCCC(=O)OC1(C(C)=O)CCC2C3CCC4=CC(=O)CCC4(C)C3CCC21C (stereo not drawn)	inactive: 1.07
C[C@@H]1CN([C@@H](C)CO)C(=O)c2cc(NC(=O)NC3CCCCC3)ccc2O[C@@H](C)CCCCO[C@H]1CN(C)C(=O)C1CCCCC1	inactive: 1.04
C[C@@H]1CN([C@@H](C)CO)C(=O)c2cc(/C=C/c3ccccc3)cnc2O[C@@H]1CN(C)C(=O)Nc1ccc(C(F)(F)F)cc1	inactive: 1.03
NCc1cccc(Cn2cccn2)c1	inactive: 0.964
CC(C)NNC(=O)c1ccncc1.O=P(O)(O)O	inactive: 1.01
CNC[C@H]1OCCCC[C@@H](C)Oc2ccc(NS(=O)(=O)c3c(C)noc3C)cc2C(=O)N([C@H](C)CO)C[C@@H]1C	inactive: 1.01
COc1ccc(S(=O)(=O)Nc2ccc3c(c2)C(=O)N([C@H](C)CO)C[C@@H](C)[C@@H](CN(C)Cc2ccc(C(=O)O)cc2)OCCCC[C@H](C)O3)cc1	inactive: 0.988
C[C@@H]1CN([C@H](C)CO)C(=O)c2cc(NC(=O)Nc3ccccc3)ccc2O[C@@H]1CN(C)Cc1ccc(C(F)(F)F)cc1	inactive: 0.876
Cc1ccc2nc([C@H](N)C(C)C)[nH]c2c1	inactive: 1

Compound	relative growth
CC(C)NC(=O)Nc1ccc2c(c1)C(=O)N([C@H](C)CO)C[C@H](C)[C@@H](CN(C)CC1CCCCC1)OCCCC[C@@H](C)O2	inactive: 0.975
CCC(CC)c1nc(Nc2ccccc2)c2ccccc2n1	inactive: 0.287
Clc1ccc2c(c1)CCc1cccnc1C2=C1CCNCC1	inactive: 0.969
C[C@H]1CN([C@@H](C)CO)S(=O)(=O)c2ccc(-c3cncnc3)cc2O[C@@H]1CN(C)C(=O)c1cccc(F)c1	inactive: 0.976
CCn1c(-c2nonc2N)nc2cncc(C(=O)N3CC[C@H](N)C3)c21	inactive: 1.03
C[C@@H]1CN([C@@H](C)CO)C(=O)Cc2cc(NC(=O)Cn3cnnn3)ccc2O[C@H]1CN(C)CC1CC1	inactive: 1.02
C[C@@H]1CN([C@@H](C)CO)C(=O)c2cccc(NC(=O)Nc3ccc(F)cc3)c2O[C@@H]1CN(C)S(=O)(=O)c1cn(C)cn1	inactive: 0.978
C[C@H](CO)N1C[C@H](C)[C@H](CN(C)Cc2ccc(Cl)c(Cl)c2)Oc2c(NC(=O)Nc3ccc(C(F)(F)F)cc3)cccc2C1=O	inactive: 0.997
C[C@@H]1CCCCO[C@H](CN(C)C(=O)c2ccccc2)[C@H](C)CN([C@@H](C)CO)C(=O)c2cc(NC(=O)Nc3ccc(C(F)(F)F)cc3)ccc2O1	inactive: 0.964
O=C(Nc1ccc(S(=O)(=O)OCC(F)(F)C(F)(F)C(F)(F)C(F)F)cc1)NC1(C(F)(F)F)Oc2ccccc2O1	inactive: 1.03
C[C@@H]1CN([C@@H](C)CO)C(=O)c2cc(C#CC3CCCCC3)cnc2O[C@H]1CN(C)C(=O)Cc1ccccn1	inactive: 0.979
COc1ccc(CN(C)C[C@@H]2OCCCC[C@H](C)Oc3ccc(NC(=O)C4CCCCC4)cc3C(=O)N([C@H](C)CO)C[C@H]2C)cc1	inactive: 0.937
NCc1cc(Oc2cccc(C(=O)N3C[C@@H](O)[C@H](F)C3)c2)nc(C(F)(F)F)c1	inactive: 0.98
C[C@@H]1CCCCO[C@@H](CN(C)CC2CCCCC2)[C@@H](C)CN([C@@H](C)CO)C(=O)c2cc(NC(=O)Nc3ccc4c(c3)OCO4)ccc2O1	inactive: 0.991
COc1ccc2c3c(n(c2c1)C)[C@@H](CO)N(C[C@]13CCN(CC1)C(=O)c1cccnc1)C(=O)c1cccnc1	inactive: 0.996
COc1ccc(NC(=O)Nc2ccc3c(c2)C(=O)N([C@@H](C)CO)C[C@@H](C)[C@H](CN(C)C(=O)Nc2ccccc2)OCCCC[C@@H](C)O3)cc1	inactive: 1.05
Cc1ccc(S(=O)(=O)N(C)C[C@@H]2Oc3c(NC(=O)C4CC4)cccc3C(=O)N([C@H](C)CO)C[C@@H]2C)cc1	inactive: 1.01
C[C@@H]1CCCCO[C@@H](CN(C)C(=O)NC2CCCCC2)[C@@H](C)CN([C@@H](C)CO)C(=O)c2cc(NC(=O)NC3CCCCC3)ccc2O1	inactive: 1.01
C[C@H](CO)N1C[C@H](C)[C@H](CN(C)CC2CCCCC2)Oc2c(NS(=O)(=O)c3cn(C)cn3)cccc2C1=O	inactive: 1.01
O=C(CCC(=O)N1CCOCC1)Nc1c(F)c(F)nc(N2CCOCC2)c1F	inactive: 0.958
Cc1noc(C)c1S(=O)(=O)N(C)C[C@@H]1OCCCC[C@@H](C)Oc2ccc(NS(C)(=O)=O)cc2C(=O)N([C@H](C)CO)C[C@H]1C	inactive: 1.05

Compound	relative growth
O=C(C[C@H]1CC[C@@H]2[C@H](COC[C@@H](O)CN2S(=O)(=O)c2ccccc2F)O1)NCc1ccccc1F	inactive: 0.996
C[C@H]1CN([C@@H](C)CO)C(=O)Cc2cc(NC(=O)CCC(F)(F)F)ccc2O[C@@H]1CN(C)S(=O)(=O)c1cn(C)cn1	inactive: 0.997
Cc1noc(C)c1NC(=O)Nc1ccc2c(c1)CC(=O)N([C@@H](C)CO)C[C@H](C)[C@@H](CN(C)S(=O)(=O)c1ccccc1)O2	inactive: 0.972
COc1cccc(NC(=O)N2C[C@@H](O)COC[C@@H]3O[C@H](CC(=O)NCc4ccccc4F)CC[C@H]32)c1	inactive: 0.994
C[C@H](CO)N1C[C@H](C)[C@H](CN(C)S(=O)(=O)c2ccccc2)Oc2ncc(C#Cc3cccc(F)c3)cc2C1=O	inactive: 0.988
CO[C@H]1O[C@H](COC(=O)NCCCCCC(=O)NO)[C@@H](OC(=O)Nc2ccccc2)[C@@H]2OC(=O)[C@H](Cc3cccc(Br)c3)C/C=C/C[C@@H](Cc3cccc(Br)c3)C(=O)O[C@@H]12	inactive: 1.01
Cc1noc(C)c1NC(=O)Nc1ccc2c(c1)CC(=O)N([C@H](C)CO)C[C@@H](C)[C@H](CN(C)S(=O)(=O)c1cn(C)cn1)O2	inactive: 0.951
Cc1noc(C)c1S(=O)(=O)Nc1ccc2c(c1)C(=O)N([C@@H](C)CO)C[C@@H](C)[C@H](CN(C)Cc1ccc(C(=O)O)cc1)O2	inactive: 0.988
CN(C)CCOC(c1ccccc1)c1ccccc1.Cn1c(=O)c2[nH]c(Cl)nc2n(C)c1=O	active: 0.0491
CC=Cc1ccc2n(c1=O)C[C@@H]1[C@@H](CO)[C@H](C(=O)NC3CCC3)[C@H]2N1S(=O)(=O)c1cn(C)cn1	inactive: 1.01
CC(=Cc1ccccc1)C=C1SC(=S)N(CC(=O)O)C1=O	inactive: 1.06
C[C@H](CO)N1C[C@H](C)[C@@H](CN(C)Cc2ccc(F)cc2)Oc2cc(Br)ccc2S1(=O)=O	inactive: 0.938
Nc1cc(N)nc(SCCC(=O)O)n1	inactive: 1.02
O=C(O)C(O)C(O)(Cc1ccc(O)cc1)C(=O)O (stereo not drawn)	inactive: 1.07
NC(=O)NCc1ccccn1	inactive: 1
C[C@@H]1CN([C@H](C)CO)C(=O)c2cccc(NS(=O)(=O)c3cn(C)cn3)c2O[C@H]1CN(C)Cc1ccncc1	inactive: 0.97
C[C@@H]1CCCCO[C@@H](CN(C)S(=O)(=O)c2ccc(F)cc2)[C@@H](C)CN([C@H](C)CO)C(=O)c2cc(NS(C)(=O)=O)ccc2O1	inactive: 1.02
C[C@H](CO)N1C[C@H](C)[C@@H](CN(C)Cc2ccc(C(F)(F)F)cc2)Oc2ccc(NC(=O)Cc3ccccc3)cc2CC1=O	inactive: 1.05
CC(C)NC(=O)N(C)C[C@H]1Oc2ccc(NS(=O)(=O)c3cccs3)cc2CC(=O)N([C@@H](C)CO)C[C@@H]1C	inactive: 0.992
COc1cccc(-c2ccc3c(c2)O[C@H](CN(C)C(=O)C2CCC2)[C@H](C)CN([C@H](C)CO)S3(=O)=O)c1	inactive: 1.03
COc1ccc(NC(=O)N(C)C[C@H]2OCc3cnnn3CCCC(=O)N([C@@H](C)CO)C[C@H]2C)c(OC)c1	inactive: 1.02
